PMC5668364, “Structure and functional dynamics of the mitochondrial Fe/S cluster synthesis complex” (Nature Communications, 2017)

Target: the molecule itself
Experiment: SEC-MALS; human (NIA)2 complex on a Wyatt SEC WTC 030S5 column with miniDAWN TREOS and Optilab tREX

B1: human NFS1 […] (Δ[…]) with N-terminal His6-tag (enzyme)
chain: not shown
modifications: PLP covalently bound to Lys258 as an internal aldimine
notes: human cysteine desulfurase NFS1, […] (Δ[…]), plasmid pZM2; forms a dimer in the (NIA)2 crystal; also called His-tagged human NFS1; cysteine desulfurase NFS1; source: E. coli One Shot BL21 Star (DE3), co-expressed with ISD11, purified (Ni-NTA)
stoichiometry N: 2
